Changes are numbered by the printed parent chain.
B1: BCMA-06 VL1aVH3 (Fc fusion)
scFv: EVKLLQSGGGLVQPGGSLRLSCAASGIDFSRYWMSWVRQAPGKGLEWVAEINPDSSTINYAPSLKDRFTISRDNAKNSLYLQMNSLRAEDTAVYYCAIFYYANYYAMDYWGQGTTVTVSSGGGGSGGGGSGGGGSDIQMTQSPSSVSASVGDRVTITCKASQNVDTNVAWYQQKPGKSPKALIYSASYRFSGVPSRFSGSGSGTDFTLTISSLQPEDFATYYCQQYQGYPFTFGQGTKLEIK[human IgG1 Fc with C220S (EU numbers) not spelt out]
B2: BCMA-01 VL2VH2 (Fc fusion)
scFv: EVQLVESGGGLVQPGGSLRLSCAASGFTFSDFYMYWVRQAPEKRLEWVAYITNGGENTYFPDTVKGRFTISRDNAKNSLYLQMNSLRAEDTAVYYCARQNPFYYYDSNYDYAMDFWGQGTTVTVSSGGGGSGGGGSGGGGSDVVMTQSPLSLPVTLGQPASISCKSSQSLLYSNGKTYLSWLFQRPGQSPKRLIYLVSELDSGVPDRFSGSGSGTDFTLKISRVEAEDVGVYYCVQGTHFPHTFGGGTKVEIK[human IgG1 Fc with C220S (EU numbers) not spelt out]
notes: humanized scFv-Fc
B3: BCMA-01 VL1VH2 (Fc fusion)
scFv: B2 scFv with K191R
notes: humanized scFv-Fc
B4: BCMA-01 VL2VH1 (Fc fusion)
scFv: B2 scFv with E42G, R44G
notes: humanized scFv-Fc
B5: BCMA-01 VL1VH1 (Fc fusion)
scFv: B2 scFv with E42G, R44G, K191R
notes: humanized scFv-Fc
B6: BCMA-01 VL1aVH1 (Fc fusion)
scFv: B2 scFv with E42G, R44G, G175A, K191R
notes: humanized scFv-Fc
B7: BCMA-01 VL2VH2a (Fc fusion)
scFv: B2 scFv with G54A
notes: humanized scFv-Fc
B8: BCMA-01 VL2VH3 (Fc fusion)
scFv: B2 scFv with Q3K
notes: humanized scFv-Fc
B9: BCMA-mAb06 (Fc fusion)
scFv: EVKLLQSGGGLVQPGGSLKLSCAASGIDFSRYWMSWVRRAPGKGLEWIGEINPDSSTINYAPSLKDEFIISRDNAKNTLYLQMSKVRSEDTALYYCAIFYYANYYAMDYWGQGTSVTVSSGGGGSGGGGSGGGGSDIVMTQSQKFMSTSVGDRVSVTCKASQNVDTNVAWYQQKPGQSPKALIYSASYRFSGVPDRFTGSGSGTDFTLTISNVQSEDLAEYFCQQYNGYPFTFASGTKLEIK[human IgG1 Fc with C220S (EU numbers) not spelt out]
notes: human-mouse chimeric scFv-Fc
B10: BCMA-mAb07 (Fc fusion)
scFv: QVQLQQSGAELAKPGASVKLSCKASGYTFTDYWTHWVKQRPGQGLEWIGYINHGSGYTKYNQKFKDKATLTADKSSSTAYMQVSSLTYEDSAVYYCARLTGSYYFDYWGQGTTLTVSSGGGGSGGGGSGGGGSQIVLTQSPAIMSASPGEKVTMTCSASSSVSYMHWYQQKSGTSPKRWIYDTSKLASGVPPRFSGSGSGTSYSLTISSMEAEDAATYYCQQWSSNPLTFGAGTKLELK[human IgG1 Fc with C220S (EU numbers) not spelt out]
notes: human-mouse chimeric scFv-Fc
B11: BCMA-07 VL2VH2 (Fc fusion)
scFv: EVQLVQSGAEVKKPGSSVKVSCKASGYTFTDYWTHWVRQAPGQGLEWMGYINHGSGYTKYNQKFKDRVTLTADKSTSTAYMELSSLRSEDTAVYYCARLTGSYYFDYWGQGTTVTVSSGGGGSGGGGSGGGGSDIQMTQSPSSLSASVGDRVTITCSASSSVSYMHWYQQKPGKSPKRWIYDTSKLASGVPSRFSGSGSGTEFTLTISSLQPEDFATYYCQQWSSNPLTFGQGTKLEIK[human IgG1 Fc with C220S (EU numbers) not spelt out]
notes: humanized scFv-Fc
B12: BCMA-07 VL4VH2 (Fc fusion)
scFv: B11 scFv with D134Q, K174T
notes: humanized scFv-Fc
B13: BCMA-07 VL3VH1 (Fc fusion)
scFv: B11 scFv with L70I, D134Q
notes: humanized scFv-Fc
B14: BCMA-mAb01 (Fc fusion)
scFv: EVKLVESGGGLVQPGGSLKLSCAASGFTFSDFYMYWVRQTPEKRLEWVAYITNGGENTYFPDTVKGRFTISRDNAKNTLYLQMSRLKSEDTAMYYCARQNPFYYYDSNYDYAMDFWGQGTSVTVSSGGGGSGGGGSGGGGSDVVMTQTPLTLSVTIGQPASISCKSSQSLLYSNGKTYLSWLFQRPGQSPKRLIYLVSELDSGVPDRFTGSGSGTDFTLKISRVEAEDLGIYYCVQGTHFPHTFGGGTKLEIK[human IgG1 Fc with C220S (EU numbers) not spelt out]
notes: human-mouse chimeric scFv-Fc

Each binder was assayed against T1, BCMA expressed endogenously on U266 and H929 cells (UniProt Q02223 1-184, limits assumed) (assay: FACS on U266 cells).
T1 construct: whole, on cells; The cell line (U266 or H929) is named under assay in each row; also called B cell maturation antigen; CD269
T1 sequence (looked up): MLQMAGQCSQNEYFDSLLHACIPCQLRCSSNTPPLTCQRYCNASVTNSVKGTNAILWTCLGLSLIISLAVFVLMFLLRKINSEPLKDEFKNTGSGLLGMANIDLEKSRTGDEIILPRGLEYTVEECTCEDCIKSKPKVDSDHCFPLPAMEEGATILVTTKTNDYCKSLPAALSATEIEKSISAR
Summary of the method: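 Binding measured by flow cytometry as mean fluorescence intensity, with EC50 from curve fitting. Antibody incubated 1 h at 4° C with cells suspended at 2×10⁶/ml in PBS containing 2% FCS, followed by washes.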

Row | Binder | Maximum mean fluorescence intensity | EC50 [nM]
1 | B1 | 4880 | 
2 | B2 | 3990 | 7.84
3 | B3 | 3840 | 12.1
4 | B4 | 4030 | 8.69
5 | B5 | 3860 | 9.84
6 | B6 | 3930 | 12.7
7 | B7 | 3650 | 20.1
8 | B8 | 4100 | 10.5
9 | B9 | 2400 | 2.83
10 | B10 | 1800 | 8.1
11 | B11 | 11000 | 
12 | B12 | 11500 | 
13 | B13 | 42700 | 
14 | B14 | 3930 | 7.48

These binders were tested against T1, BCMA expressed endogenously on U266 and … (assay: FACS on H929 cells).

Row | Binder | EC50 [nM] | Maximum mean fluorescence intensity
15 | B1 | 5.93 | 24200
16 | B2 | 5.22 | 9980
17 | B3 | 11 | 10400
18 | B4 | 4.96 | 9560
19 | B5 | 5.58 | 8530
20 | B6 | 8.7 | 9370
21 | B7 | 11.8 | 9720
22 | B8 | 6.13 | 10800
23 | B9 | 4.43 | 21900
24 | B10 | 9.09 | 21000
25 | B11 | 207 | 30700
26 | B12 | 108 | 33500
27 | B13 |  | 73100
28 | B14 | 4.12 | 10500

The binders below were run against T2, human BCMA-His protein (human, UniProt Q02223 1-54) (assay: SPR, antibody captured on Protein A chip, BCMA-His as analyte).
T2 construct: Analyte in the SPR assay; also called human BCMA protein; BCMA antigen protein; not shown: His tag
T2 sequence (looked up): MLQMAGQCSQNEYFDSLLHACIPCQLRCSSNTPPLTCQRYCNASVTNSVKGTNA
Description: A sample buffer and a running buffer were HBS-EP+ (10 mM HEPES, 150 mM NaCl, 3 mM EDTA and 0.05% surfactant P20) (GE Healthcare; BR-1006-69). The flow-through cell was set to 25° C. The sample block was set to 16° C. Both were pretreated with the running buffer. In each cycle, an antibody to be tested was first captured with a Protein A chip, and then a single concentration of BCMA antigen protein was injected. The binding and dissociation processes of the antibody and the antigen protein were recorded, and finally Glycine pH 1.5 (GE Helthcare; BR-1003-54) was used to complete chip regeneration. Binding was measured by injecting different concentrations of BCMA-His in solution for 240 s with a flow rate of 30 μL/min. The concentration started from 200 nM (see the detailed results for the actual concentration in the test) and was diluted at 1:1, making a total of 5 concentrations. The dissociation phase was monitored for up to 600 s and was triggered by switching from sample solution to running buffer. The surface was regenerated by washing with a 10 mM glycine solution (pH 1.5) for 30 s at a flow rate of 30 μL/min. Bulk refractive index difference was corrected by subtracting the response obtained from the goat anti-human Fc surface. Blank injection was also subtracted (=double reference). For calculation of apparent KD and other kinetic parameters, Langmuir 1:1 model was used. The binding rate (Kₐ), dissociation rate (Kdis) and binding affinity (KD) of the chimeric antibodies to human BCMA protein are shown in the table, wherein REGN5459-hlgG1 and HPN217-hHcAb antibodies were used as controls.
The specific method was the same as that in Example 6. The binding rate (Kₐ), dissociation rate (Kdis) and binding affinity (KD) of the humanized antibodies to human BCMA protein are shown Table 38, wherein REGN5459-hlgG1 antibody is used as a control.

Row | Binder | Kd [nM] | koff [s⁻¹] | kon [M⁻¹ s⁻¹]
29 | B1 | 8.54 | 0.00326 | 382000
30 | B2 | 0.341 | 0.000638 | 1.87e+06
31 | B3 | 0.32 | 0.000614 | 1.92e+06
32 | B4 | 0.37 | 0.000655 | 1.77e+06
33 | B5 | 0.384 | 0.00067 | 1.74e+06
34 | B6 | 0.344 | 0.000621 | 1.81e+06
35 | B7 | 0.455 | 0.000756 | 1.66e+06
36 | B8 | 0.321 | 0.000605 | 1.88e+06
37 | B9 | 0.358 | 0.000341 | 952000
38 | B10 | 0.751 | 0.00107 | 1.42e+06
39 | B11 | 0.792 | 0.000946 | 1.19e+06
40 | B12 | 0.508 | 0.000747 | 1.47e+06
41 | B13 | 1.62 | 0.00148 | 913000
42 | B14 | 0.511 | 0.000814 | 1.59e+06
